This is one part of the list.
Legend:
Experiment in all cases: glycan array binding signal (z-score within array); higher = stronger binding
Details in all cases: glycan notation: IUPAC condensed, linker removed
[1] = target: GalNAc3S(b1-4)[Fuc(a1-3)]GlcNAc
Procedure, shortened: (§1)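 From the Consortium for Functional Glycomics database, 3228 arrays were curated, keeping only those whose protein sequence was available. Binding is given as a within-array Z-score averaged across arrays sharing a protein sequence and across linkers. Negative Z-scores can be read as non-binding.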

GalNAc4S6S(b1-4)GlcNAc = target: GalNAc4S6S(b1-4)GlcNAc
Procedure, shortened: as §1

GalNAc6S(b1-4)GlcNAc = target: GalNAc6S(b1-4)GlcNAc
Procedure, shortened: as §1

Glc(a1-4)Glc = target: Glc(a1-4)Glc
Procedure, shortened: as §1

[2] = target: Glc(a1-4)Glc(a1-4)Glc(a1-4)Glc
Procedure, shortened: as §1

Glc(a1-6)Glc(a1-6)Glc = target: Glc(a1-6)Glc(a1-6)Glc
Procedure, shortened: as §1

[3] = target: Glc(a1-6)Glc(a1-6)Glc(a1-6)Glc
Procedure, shortened: as §1

Glc(b1-4)Glc = target: Glc(b1-4)Glc
Procedure, shortened: as §1

Glc(b1-6)Glc = target: Glc(b1-6)Glc
Procedure, shortened: as §1

GlcA(b1-3)Gal = target: GlcA(b1-3)Gal
Procedure, shortened: as §1

GlcA(b1-3)GlcNAc = target: GlcA(b1-3)GlcNAc
Procedure, shortened: as §1

GlcA(b1-6)Gal = target: GlcA(b1-6)Gal
Procedure, shortened: as §1

[4] = target: GlcA3S(b1-3)Gal(b1-4)GlcNAc(b1-2)Man
Procedure, shortened: as §1

[5] = target: GlcA3S(b1-3)Gal(b1-4)GlcNAc(b1-3)Gal(b1-4)Glc
Procedure, shortened: as §1

[6] = target: GlcNAc(a1-3)Gal(b1-4)GlcNAc
Procedure, shortened: as §1

[7] = target: GlcNAc(a1-4)Gal(b1-3)GlcNAc
Procedure, shortened: as §1

[8] = target: GlcNAc(a1-4)Gal(b1-4)GalNAc
Procedure, shortened: as §1

[9] = target: GlcNAc(a1-4)Gal(b1-4)GlcNAc
Procedure, shortened: as §1

[10] = target: GlcNAc(a1-4)Gal(b1-4)GlcNAc(b1-3)Gal(b1-4)Glc
Procedure, shortened: as §1

[11] = target: GlcNAc(a1-4)Gal(b1-4)GlcNAc(b1-3)Gal(b1-4)GlcNAc
Procedure, shortened: as §1

[12] = target: GlcNAc(a1-4)Gal(b1-4)GlcNAc(b1-3)Gal(b1-4)GlcNAc(b1-3)Gal(b1-4)GlcNAc
Procedure, shortened: as §1

[13] = target: GlcNAc(a1-4)Gal(b1-4)GlcNAc(b1-3)Gal(b1-4)[Fuc(a1-3)]GlcNAc(b1-3)Gal(b1-4)[Fuc(a1-3)]GlcNAc
Procedure, shortened: as §1

[14] = target: GlcNAc(a1-6)Gal(b1-4)GlcNAc
Procedure, shortened: as §1

[15] = target: GlcNAc(b1-2)Gal(b1-3)GalNAc
Procedure, shortened: as §1

[16] = target: GlcNAc(b1-2)Man(a1-3)[GlcNAc(b1-2)Man(a1-6)]Man(b1-4)GlcNAc(b1-4)GlcNAc
Procedure, shortened: as §1

[17] = target: GlcNAc(b1-2)Man(a1-3)[GlcNAc(b1-2)Man(a1-6)]Man(b1-4)GlcNAc(b1-4)[Fuc(a1-6)]GlcNAc
Procedure, shortened: as §1

[18] = target: GlcNAc(b1-2)Man(a1-3)[GlcNAc(b1-4)][GlcNAc(b1-2)Man(a1-6)]Man(b1-4)GlcNAc(b1-4)GlcNAc
Procedure, shortened: as §1

[19] = target: GlcNAc(b1-2)Man(a1-3)[GlcNAc(b1-4)][GlcNAc(b1-2)Man(a1-6)]Man(b1-4)GlcNAc(b1-4)[Fuc(a1-6)]GlcNAc
Procedure, shortened: as §1

[20] = target: GlcNAc(b1-2)[GlcNAc(b1-4)]Man(a1-3)[GlcNAc(b1-2)Man(a1-6)]Man(b1-4)GlcNAc(b1-4)GlcNAc
Procedure, shortened: as §1

[21] = target: GlcNAc(b1-2)[GlcNAc(b1-4)]Man(a1-3)[GlcNAc(b1-4)][GlcNAc(b1-2)Man(a1-6)]Man(b1-4)GlcNAc(b1-4)GlcNAc
Procedure, shortened: as §1

[22] = target: GlcNAc(b1-2)[GlcNAc(b1-4)]Man(a1-3)[GlcNAc(b1-4)][GlcNAc(b1-2)[GlcNAc(b1-6)]Man(a1-6)]Man(b1-4)GlcNAc(b1-4)GlcNAc
Procedure, shortened: as §1

[23] = target: GlcNAc(b1-2)[GlcNAc(b1-4)]Man(a1-3)[GlcNAc(b1-4)][GlcNAc(b1-2)[GlcNAc(b1-6)]Man(a1-6)]Man(b1-4)GlcNAc(b1-4)[Fuc(a1-6)]GlcNAc
Procedure, shortened: as §1

[24] = target: GlcNAc(b1-2)[GlcNAc(b1-6)]Man(a1-6)[GlcNAc(b1-2)Man(a1-3)]Man(b1-4)GlcNAc(b1-4)GlcNAc
Procedure, shortened: as §1

[25] = target: GlcNAc(b1-2)[GlcNAc(b1-6)]Man(a1-6)[GlcNAc(b1-2)Man(a1-3)]Man(b1-4)GlcNAc(b1-4)[Fuc(a1-6)]GlcNAc
Procedure, shortened: as §1

[26] = target: GlcNAc(b1-2)[GlcNAc(b1-6)]Man(a1-6)[GlcNAc(b1-4)][GlcNAc(b1-2)Man(a1-3)]Man(b1-4)GlcNAc(b1-4)GlcNAc
Procedure, shortened: as §1

GlcNAc(b1-3)Fuc = target: GlcNAc(b1-3)Fuc
Procedure, shortened: as §1

GlcNAc(b1-3)Gal = target: GlcNAc(b1-3)Gal
Procedure, shortened: as §1

[27] = target: GlcNAc(b1-3)Gal(b1-3)GalNAc
Procedure, shortened: as §1

B1: SP16665A-bot-344-23-344 (Bacteroides ovatus) (protein)
chain: SDNEFPDFDYQTVYFANQYGLRTIELGESEFVDNTLDNQHKMVIKAAWGGGYTNRNNVVINFKVDESLCDNLYFKDTDQPLVPMPASYYTLASDRIAIPKGQIMAGVEVQLTDDFFADEKSISENYVIPLLMTNVQGADSILQGKPVVENPVLTNAGDWSILPQNFVLYAVKYVNPWHGEYLRRGIDHATVAGTSKDIIRHEQFVENDEVVNISTKSMKDNLLTLKTKDESGKDISYTVRLSFAEDGSCTVHSGSQNVVVSGSGKFVSKGEKNSLGGKDRNAIYLDYTVNLTDNNIQLATKDTLVLRTRNVYGGKSLEVVRK
glycan array binding signal (z-score) [1]: -0.125 | glycan array binding signal (z-score) (GalNAc4S6S(b1-4)GlcNAc): -0.366 | glycan array binding signal (z-score) (GalNAc6S(b1-4)GlcNAc): -0.368 | glycan array binding signal (z-score) (Glc(a1-4)Glc): -0.119 | glycan array binding signal (z-score) [2]: -0.416 | glycan array binding signal (z-score) (Glc(a1-6)Glc(a1-6)Glc): -0.006 | glycan array binding signal (z-score) [3]: 0.999 | glycan array binding signal (z-score) (Glc(b1-4)Glc): -0.218 | glycan array binding signal (z-score) (Glc(b1-6)Glc): -0.042 | glycan array binding signal (z-score) (GlcA(b1-3)Gal): 0.164 | glycan array binding signal (z-score) (GlcA(b1-3)GlcNAc): -0.486 | glycan array binding signal (z-score) (GlcA(b1-6)Gal): 0.866 | glycan array binding signal (z-score) [4]: 0.245 | glycan array binding signal (z-score) [5]: -0.574 | glycan array binding signal (z-score) [6]: 0.267 | glycan array binding signal (z-score) [7]: -0.025 | glycan array binding signal (z-score) [8]: 0.024 | glycan array binding signal (z-score) [9]: -0.275 | glycan array binding signal (z-score) [10]: 0.185 | glycan array binding signal (z-score) [11]: -0.188 | glycan array binding signal (z-score) [12]: -0.27 | glycan array binding signal (z-score) [13]: 0.595 | glycan array binding signal (z-score) [14]: -0.122 | glycan array binding signal (z-score) [15]: 0.906 | glycan array binding signal (z-score) [16]: -0.386 | glycan array binding signal (z-score) [17]: 0.166 | glycan array binding signal (z-score) [18]: -0.365 | glycan array binding signal (z-score) [19]: -0.474 | glycan array binding signal (z-score) [20]: -0.083 | glycan array binding signal (z-score) [21]: 1.11 | glycan array binding signal (z-score) [22]: -0.391 | glycan array binding signal (z-score) [23]: -0.358 | glycan array binding signal (z-score) [24]: -0.299 | glycan array binding signal (z-score) [25]: -0.15 | glycan array binding signal (z-score) [26]: 0.157 | glycan array binding signal (z-score) (GlcNAc(b1-3)Fuc): 0.371 | glycan array binding signal (z-score) (GlcNAc(b1-3)Gal): -0.64 | glycan array binding signal (z-score) [27]: -0.206

— the supplement of paper PMC8728848
